Source: PubChem BioAssay AID504832 (National Center for Advancing Translational Sciences (NCATS), 2011)
The whole screen tested about 310,000 compounds, of which about 18,000 (5.8%) were called active. The inconclusive results got no clear call from the source; some entries with a clear call stand among them for comparison. The call rests on the fitted dose curve; in most records, active means well fitted inhibition curve with a large enough effect; inconclusive means small, poorly fitted or top-dose-only effect, or another doubt; inactive means no such curve, though single readings can be large or run the other way. No potency is given beside an inconclusive call; the fits are too rough.

Assay: Primary qHTS for delayed death inhibitors of the malarial parasite plastid, 48 hour incubation
Details: P. falciparum luciferase growth in erythrocytes; series mostly up to 28.7 µM
In short: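 Firefly luciferase activity from engineered P. falciparum reports growth; inhibitors lower the luminescent signal. Cultures contained 2% hematocrit erythrocytes at 0.1% final parasitemia.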
Potency means the concentration at half of the fitted maximal effect; tags describe the fitted curve by direction and shape.

| SMILES | Potency |
| --- | --- |
| COC(=O)c1ccccc1NC(=O)CN1CCN(Cc2ccccc2)CC1 | inconclusive [inhibitor, single point] |
| CCCCN(CC(=O)Nc1cccc(S(=O)(=O)N2CCCC2)c1)Cc1nc2ccccc2c(=O)[nH]1 | active: 3.7 µM |
| COc1ccc(CN2CCN(C(=O)Cn3nc(C(=O)O)c4ccccc4c3=O)CC2)cc1F | inactive |
| O=C(COc1cccc2ccccc12)NNC(=O)c1cnccn1 | inconclusive [inhibitor, single point] |
| CCCc1cc(=O)oc2cc(C)cc(OC(C)C(=O)NCC(O)c3ccccc3)c12 (centres undefined) | active: 0.465 µM |
| C=CCn1cnc2c(nnn2Cc2ccc(F)cc2)c1=O | inconclusive [inhibitor, partial curve, poor fit] |
| CC(=O)NC(Cc1ccccc1)C(=O)OCC(=O)c1ccccc1 (centres undefined) | inactive |
| COc1ccc(C2C(C#N)=C(N)OC3=C2C(=O)CC(C)(C)C3)cc1Cn1nc(C)c([N+](=O)[O-])c1C (centres undefined) | inconclusive [inhibitor, single point] |
| Cc1csc(SCC(=O)NC(=O)c2ccccc2)n1 | inactive |
| CC1CCN(CC(=O)Nc2cccc(C(=O)Nc3cccc(C(F)(F)F)c3)c2)CC1 | active: 1.31 µM |
| C/C(=N/NC(=O)c1ccc(Br)o1)c1cccc(NC(=O)c2ccc(F)cc2)c1 | inconclusive [inhibitor, single point] |
| Cc1onc(-c2c(Cl)cccc2Cl)c1C(=O)Nc1ccc(Cl)cn1 | inconclusive [inhibitor, full curve, poor fit] |
| C=C1CN(Cc2ccccc2)S(=O)(=O)c2ccccc21 | inconclusive [inhibitor, single point] |
| COc1ccc(S(=O)(=O)N2CCCCC2)cc1NC(=O)C1CC(=O)N(c2ccc3c(c2)OCCO3)C1 (centres undefined) | inconclusive [inhibitor, single point] |
| Cc1ccc(C(C[N+](=O)[O-])Sc2ccc(N)cc2)cc1 (centres undefined) | inconclusive [inhibitor, single point] |
| OCC[C@H]1C[C@H](O)[C@@H](O)[C@]2(OCc3ccccc32)O1 | inconclusive [inhibitor, single point] |
| CCc1c(C)nc2c(C#N)c(C)[nH]n2c1=O | inactive |
| CCCCN(C)CCCNC(=O)C1CC(=O)N(Cc2ccc(OC)cc2)C1 (centres undefined) | inactive |
| CCCNC(=O)c1ccccc1NS(=O)(=O)c1ccc2c(c1)OCCO2 | active: 9.28 µM |
| COc1ccc(N2CCN(c3oc(Cc4ccccc4)nc3C#N)CC2)cc1 | inconclusive [inhibitor, partial curve, poor fit] |
| CCCC(=O)c1ccc(N2CCCCCC2)c(F)c1 | inactive |
| Nc1ccc(C(=O)NCCCSc2ccccc2)cc1[N+](=O)[O-] | inactive |
| Cc1ccccc1-c1nnc(NC(=O)c2ccc(N3C(=O)CCC3=O)cc2)s1 | inactive |

| SMILES | Potency |
| --- | --- |
| O=C(Nc1ccncc1)c1cccn(Cc2ccccc2)c1=O | inactive |
| COc1cccc(NC(=O)CN(C)C(=O)c2cc3c(s2)CCCCC3)c1 | inactive |
| CCc1nnc(NC(=O)CC(CN(C)S(=O)(=O)c2ccccc2)c2ccccc2)s1 (centres undefined) | inconclusive [inhibitor, full curve, poor fit] |
| CCC1CCCCN1CCCNC(=O)c1ccc2c(=O)n(CCOC)c(=O)[nH]c2c1 (centres undefined) | inconclusive [inhibitor, partial curve, poor fit] |
| Fc1ccc(C2CCCN2Cc2nc(Cc3ccccc3F)no2)cc1 (centres undefined) | inconclusive [inhibitor, single point] |
| COc1ccccc1Nc1nc(-c2ccccc2O)nc2ccccc12 | inconclusive [inhibitor, partial curve, poor fit] |
| O=C(CN1CCN(C(=O)c2ccco2)CC1)Nc1ccc(Cl)c(S(=O)(=O)N2CCOCC2)c1 | active: 11.7 µM |
| COc1ccc(Cl)cc1NC(=O)CN(C)C(=O)c1cc2c(s1)CCCC2 | active: 9.28 µM |
| Cc1ccc(C)c(S(=O)(=O)N2CCCCC2CCNC(=O)C(=O)NC2CCCC2)c1 (centres undefined) | inconclusive [inhibitor, single point] |
| CC(=O)Nc1ccc(S(=O)(=O)NCCS(=O)(=O)N2CCN(c3ccccc3F)CC2)cc1 | inconclusive [inhibitor, partial curve] |
| CCNC(=S)N1C2CCC1CC(NC(=O)Nc1ccc(C(=O)OCC)cc1)C2 (centres undefined) | inconclusive [inhibitor, partial curve] |
| CC1CCC[C@H](O)CCCCCc2cc(O)cc(O)c2C(=O)O1 (some centres undefined) | inconclusive [inhibitor, single point] |
| O=C(Cc1cccc(C(F)(F)F)c1)Nc1cc(S(=O)(=O)N2CCOCC2)ccc1N1CCCC1 | inconclusive [inhibitor, single point] |
| Cc1cc(CN2CCCC(CNC(=O)c3ccc(F)cc3)C2)cc(C)c1O (centres undefined) | inactive |
| COc1cc(C(=O)Nc2c(-c3ccccn3)c(=O)c3ccccc3n2C)cc(OC)c1OC | inactive |
| COCCNC(=O)c1c(CS(=O)(=O)c2ccccc2)noc1C(=O)NCc1ccccc1 | inconclusive [inhibitor, single point] |
| CC1=C(C(=O)Nc2ccc(C(=O)NC(C)c3ccccc3)cc2)SCCO1 (centres undefined) | inconclusive [inhibitor, partial curve, poor fit] |
| C=CCn1c(N2C(=O)CC(Cc3ccccc3)C2=O)nc2ccccc21 (centres undefined) | inconclusive [inhibitor, single point] |
| COC(=O)C1=C(c2ccc(C(C)=O)cc2)C[C@@H]2CC[C@H]1N2C(=O)N1CCC(O)CC1 | inconclusive [inhibitor, single point] |
| O=C1/C(=N\S(=O)(=O)c2cccs2)C([n+]2ccccc2)=C([O-])c2ccccc21 | inconclusive [inhibitor, full curve] |
| COc1ccc(C=O)cc1 | inactive |
| O=C(O)Cn1cc(/C=C2\C(=O)NC(=O)N(c3ccc(Br)cc3)C2=O)c2ccccc21 | inconclusive [inhibitor, single point] |
| NS(=O)(=O)c1ccc(CCNC(=O)CCCn2c(=O)[nH]c3ccc(Br)cc3c2=O)cc1 | inconclusive [inhibitor, partial curve, poor fit] |

| SMILES | Potency |
| --- | --- |
| Cc1onc(C(=O)N2CCOCC2)c1[N+](=O)[O-] | inconclusive [inhibitor, single point] |
| COc1cc(CC(=O)NCC2COc3ccccc3O2)cc(OC)c1OC (centres undefined) | inactive |
| COc1ccccc1NC(=O)CSCc1ccc([N+](=O)[O-])cc1 | inactive |
| Cc1cccc(C)c1NC(=O)CNC(=O)c1ccc(COc2ccccc2)o1 | inactive |
| Cc1cc(S(=O)(=O)NCc2ccccc2)ccc1OCC(=O)NCC1CCCO1 (centres undefined) | inactive |
| COc1ccc(CCNc2oc(COc3ccccc3F)nc2C#N)cc1OC | inconclusive [inhibitor, partial curve] |
| Cc1ccc(S(=O)(=O)N(c2nc(NC(C)C)nc(NC(C)C)n2)n2cnnc2)cc1 | inactive |
| N#Cc1nc(COc2cccc(Cl)c2)oc1NCc1ccncc1 | inconclusive [inhibitor, full curve] |
| COc1ccc(N2CCN(C(=O)CCc3nnc4ccc(N5CCCC5)nn34)CC2)cc1 | inconclusive [inhibitor, single point] |
| CCN1CCN(Cc2ccc(NC(=O)c3cc(NC(=O)c4cnn(-c5ccccc5)c4N)cc(OC)c3)cc2C(F)(F)F)CC1 | active: 1.85 µM |
| CCCCC(C(=O)NC(C)(C)C)N(Cc1ccccc1Cl)C(=O)c1snc(C(N)=O)c1N (centres undefined) | active: 10.4 µM |
| O=C(CN1CCN(C(c2ccccc2)c2ccccc2)CC1)N1N=CCC1c1ccccc1 (centres undefined) | inconclusive [inhibitor, partial curve, poor fit] |
| CC(=O)c1ccc(N2CCN(Cc3nc4ccccc4[nH]3)CC2)cc1 | inconclusive [inhibitor, full curve, poor fit] |
| CCC(c1nnc(SCC(=O)NC2CCCCC2)n1Cc1ccccc1)N(C)C (centres undefined) | inconclusive [inhibitor, single point] |
| COc1ccc(C(CNC(=O)Cc2ccc(-c3ccccc3)cc2)N(C)C)cc1 (centres undefined) | inconclusive [inhibitor, single point] |
| Cc1c(/C=N/NC(=O)c2ccccc2O)c2ccccn2c1C(=O)c1ccc(F)cc1 | active: 8.28 µM |
| O=C(CN(Cc1ccco1)C(=O)c1ccc(N2CCCC2=O)cc1)Nc1ccccc1C(F)(F)F | inconclusive [inhibitor, single point] |
| CCOC(=O)N1CCN(C(=O)c2ccccc2SCC(=O)NCC2CCCCC2)CC1 | inconclusive [inhibitor, single point] |
| Cc1c(/C=N/NC(=O)c2cc(C(C)(C)C)[nH]n2)c2ccccc2n1C | inconclusive [inhibitor, single point] |
| CC1C(=O)N2CCCc3cc(S(=O)(=O)N4CCN(c5cccc(Cl)c5)CC4)cc1c32 (centres undefined) | inconclusive [inhibitor, single point] |
| Cc1cc(Br)ccc1NC(=O)CCSc1ccccc1 | inactive |
| CC1CCN(c2c(NCc3ccc(C(=O)N(C)C4CCCCC4)cc3)c(=O)c2=O)CC1 | active: 8.28 µM |
| CCOc1ccc2nc(N(CCCN(C)C)C(=O)c3ccc(S(=O)(=O)N4CCCC4)cc3)sc2c1 | inconclusive [inhibitor, single point] |
